# Whole data set: some 33,000 sequences, median “E-score (-0.5 to 0.5)” near -0.013, cut for the highest 2% near 0.3. The list shows a part of the results.
# Molecular target: T1, Msn1 (UniProt P22148)
# T1 sequence: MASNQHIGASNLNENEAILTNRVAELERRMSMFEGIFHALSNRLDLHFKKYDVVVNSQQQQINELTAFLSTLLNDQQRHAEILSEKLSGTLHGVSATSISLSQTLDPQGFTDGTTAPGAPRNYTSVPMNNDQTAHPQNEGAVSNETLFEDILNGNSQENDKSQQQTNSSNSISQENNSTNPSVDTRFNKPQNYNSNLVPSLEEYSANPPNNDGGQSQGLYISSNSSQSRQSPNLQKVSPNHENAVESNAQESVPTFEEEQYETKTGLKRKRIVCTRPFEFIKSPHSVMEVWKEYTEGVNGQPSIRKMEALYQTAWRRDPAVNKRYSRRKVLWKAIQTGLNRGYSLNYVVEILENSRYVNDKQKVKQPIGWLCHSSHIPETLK
# Assay: PBM E-score (8-mer binding enrichment) (E-score (-0.5 to 0.5)); higher = stronger / more preferred TF binding; most listed sequences are background and not binding sites
# Conditions: protein concentration: 200 nM; construct: GST-full length
# Outline: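 Masliner-normalised scans of fluorescent anti-GST signal were the basis for scoring. That signal came from GST-tagged yeast transcription factors applied at about 100-200 nM to double-stranded universal all-10-mer Agilent arrays on fresh or once-stripped slides. Each ungapped eight-base word, pooled with its reverse complement, received an E-score from the Universal PBM Analysis Suite.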
row,Sequence,PBM E-score
1,ACTCGTTG,-0.00397
2,AAAGTAGC,-0.0657
3,AAGCAATC,0.0939
4,ACTCTGTA,-0.156
5,ATTACATG,0.0976
6,ATGACGGG,-0.116
7,CATGGAAG,-0.121
8,AACCCCCT,-0.315
9,TACAGTAA,0.00283
10,CTTATGAA,-0.0045
11,CGTTATCA,0.0217
12,GTTCGAAA,0.191
13,AAGTTTTA,0.0714
14,ATAGGTTC,-0.0899
15,CTATCTTC,0.0439
16,GCAAACGA,0.0657
17,ACGCGAGA,-0.00082
18,GAAGCGGA,0.0317
19,AGGACTAT,-0.131
20,GAGCAAAC,-0.0763
21,CCCCTAAC,-0.169
22,CCCGGCGA,-0.0393
23,CATCACAG,-0.14
24,ATGACCAT,0.0751
25,CTGCATGA,-0.221

row,Sequence,PBM E-score
1,AACGACGT,0.0913
2,CACGAAGG,-0.0904
3,AACGCCAT,-0.0232
4,CCAACGCG,0.0849
5,CATTGACA,-0.0376
6,AGTATATG,0.0831
7,CGCCCGGC,-0.155
8,AGGGCGTG,0.00236
9,CCCTCGTA,-0.185
10,GGAACCGA,-0.00407
11,CGTGTATC,-0.0252
12,CCCCCTAC,-0.362
13,CCAATGAA,-0.114
14,ATATAGTC,0.101
15,ACCACTGA,-0.113
16,ACACCCGA,0.189
17,ATGAAATC,0.115
18,GGAGTACC,-0.245
19,AAGATTCC,0.0923
20,GCTGAACC,-0.0307
21,ACCAAGAT,-0.0621
22,AGTGAAGG,-0.108
23,ACCGTATG,-0.0372
24,CCACCAAA,-0.132
25,CCCATTAC,-0.158

row,Sequence,PBM E-score
1,GGGCCGAC,-0.102
2,GATACTGA,0.0464
3,GCTGCTAC,-0.214
4,CCATCTAG,-0.156
5,CGTTTACA,-0.0428
6,CTTGCTAA,-0.158
7,ACTCGGCG,0.165
8,CCATTCAC,-0.0289
9,AAAACCCT,-0.0857
10,CCGGGGCA,-0.2
11,CCATGGGA,-0.123
12,AGCCCCAT,-0.153
13,CTTCCGTC,0.00904
14,CATGAGAA,0.117
15,CCTGGGTA,-0.231
16,ACCAACCA,-0.0389
17,CAGGGACC,-0.273
18,CGTCGTTC,0.12
19,GCTGAGCC,-0.172
20,AAGAAAGG,-0.0965
21,AGCTTCAG,-0.165
22,AGAAAATG,0.15
23,CATGCGAG,-0.13
24,ATCGAAGC,-0.0811
25,ACAGGGAT,-0.147

row,Sequence,PBM E-score
1,CACACCGA,0.00524
2,ACATAACT,0.105
3,GGTTGACA,0.0242
4,CAGGTAAA,0.141
5,GTAGACAC,0.0944
6,ACCGATGC,-0.136
7,CAAGAGCG,-0.0817
8,CCTGGGGA,-0.402
9,ATGACTAA,-0.0221
10,GAATGCGC,0.0658
11,CGGTGTGA,0.0978
12,ATTGCCAA,-0.0368
13,AGAGCGGC,-0.219
14,ATATGATC,0.215
15,GCCAAAGA,-0.154
16,GTGAAGCA,-0.145
17,ACAGGCAA,0.188
18,CATAGGGC,-0.182
19,GACGGGTA,-0.204
20,CATTCAGG,0.00579
21,AATGTGGA,0.132
22,ATAGGACC,-0.11
23,AATATGGT,0.134
24,AAACGCCA,0.165
25,CTTGTGAA,-0.152

row,Sequence,PBM E-score
1,AACGTCAA,0.162
2,CGTAGTCC,-0.106
3,AAGGTGCA,-0.0362
4,AAGGAAAG,-0.204
5,CCCTTATA,-0.0141
6,CTCAAGTC,-0.105
7,AACGGGGC,-0.154
8,GATTGATA,0.0851
9,AGATTCGA,0.0206
10,AAAGACCT,0.0725
11,AGTAGCCA,-0.186
12,ATTTTCTC,-0.0167
13,CATGCTGC,-0.134
14,CTGATAGA,0.0701
15,TTATTAAA,0.29
16,CTCATGCA,0.0112
17,GGCATGCC,0.121
18,GTCGACTA,0.147
19,CTTGCTCC,-0.027
20,GGTTCTAC,-0.139
21,CTCTATCC,-0.094
22,GCTCAAAA,0.129
23,AATTCAAG,0.087
24,ACTTGGGA,-0.131
25,ATAAGATG,0.177

row,Sequence,PBM E-score
1,ATACCACC,-0.0113
2,CATGCTAG,0.0327
3,CATATGTC,0.449
4,TGCAACAA,0.00155
5,GGCTCACC,-0.297
6,GTATTAGA,0.183
7,GCGGAGCC,-0.139
8,CGGTGGTC,-0.178
9,ACATTCAT,0.219
10,AGCCAGGA,-0.0467
11,CACTCTAC,0.0849
12,ACCAGCAG,-0.229
13,TCAAACCA,0.0273
14,ATCGGGCA,0.0319
15,CTAGCGAA,-0.166
16,AGATGAAA,0.0281
17,GGCGAGCC,-0.0805
18,CGGTAACG,-0.0583
19,CGGCCTAA,0.0911
20,CAGACGCA,-0.157
21,CATCGATC,0.0582
22,GATGGGAA,-0.263
23,CCCCAACA,-0.258
24,CCTGAAGG,-0.23
25,GCACAAAC,0.0596

row,Sequence,PBM E-score
1,CGCCCCGA,-0.116
2,AGGTTAAG,-0.0722
3,AGTGCCGC,-0.00434
4,ACCTACGA,0.0388
5,CCAGTCGC,-0.182
6,CACTGATA,0.00625
7,CCTCAGAA,-0.0736
8,CAGGCCTA,0.0635
9,CGTAAGGA,-0.0491
10,GTGACGTA,0.0544
11,AGAGTTCG,0.068
12,AGTTCCAG,-0.0913
13,CCTCTCCC,-0.186
14,ATCGATGA,0.148
15,ATCTCCAG,-0.0877
16,AAAGCACC,-0.171
17,CGTATGAG,0.0013
18,ATCTGTGA,0.0317
19,CGCTTCCC,-0.207
20,AAAATCTG,0.182
21,TAGTAGCA,-0.0287
22,CCGCGGCA,0.0871

# Source: the supplement of paper PMC3334620
